# Experimental data: PubChem BioAssay AID1347073 (National Center for Advancing Translational Sciences (NCATS), 2019)
# The whole screen tested about 45,000 compounds, of which about 200 (0.44%) were called active. Roughly 7% stayed inconclusive and do not appear here. The call rests on the fitted dose curve; in most records, active means well fitted activation curve with a large enough effect; inconclusive means small, poorly fitted or top-dose-only effect; inactive means no such curve, though single readings can be large or run the other way. This is one part of the list. Peptide text beside a SMILES is read from it. * marks the point of attachment. Boc = CC(C)(C)OC(=O)*
# Test: qHTS of TDP-43 Inhibitors: NCGC Sytravon Library Screen; further: nearly all actives have a fitted effect of over 55% in size; on growth rescue (activation): 0% is about no effect
# Conditions: yeast TDP-43 toxicity rescue, BacTiter-Glo growth, 24 h; series mostly up to 46.1 µM; growth rescue (activation): at the top concentration
# How it was run: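 TDP-43-expressing yeast, pregrown in raffinose, seeded at OD600 0.02 in galactose medium with compound for 24 hr at 30 deg C. Growth read by BacTiter-Glo luminescence, so rescue of toxicity appears as activation.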
# Potency means the concentration at half of the fitted maximal effect.
Structure (SMILES),growth rescue (activation),Potency
O=C(C1CC1)N1CCN(S(=O)(=O)c2ccc3c(c2)OCCO3)CC1,inactive: 3.92%,
Cc1cccc(C(=O)Nc2nnc(SCC(=O)NC3CC3)s2)c1,inactive: 16.3%,
O=C(CN(C(=O)c1csnn1)c1cccc(C(F)(F)F)c1)NCc1ccc(F)cc1,inactive: 9.24%,
O=C(COc1ccccc1)Nc1ccccc1NS(=O)(=O)c1cccs1,inactive: 13.4%,
Cc1cc(C(=O)C(C)OC(=O)C2=NNC(=O)CC2)c(C)n1-c1ccc(OC(F)F)cc1 (stereo not drawn),inactive: 20.3%,
COC(=O)C(Cc1ccccc1)NC(=O)C(CC(C)C)NC(=O)OC(C)(C)C (stereo not drawn) (Boc-Leu-Phe-OMe; configuration not given here),inactive: 6.74%,
Fc1ccc(C2c3[nH]c4ccccc4c3CCN2CCCn2cccn2)cc1 (stereo not drawn),inactive: -24.4%,
CC(C)CNc1ncnc2c1ncn2[C@H]1CN(Cc2ccc(-c3ccccc3)cc2)C[C@@H](CO)O1,inactive: 1.04%,
COc1ccc(COc2ccccc2C(=O)NCc2ccccc2)cc1F,inactive: 12.8%,
COC(=O)c1ccc(N2CCN(C(C)=O)CC2)c(NC(=O)COc2ccccc2C)c1,inactive: 12.1%,
CC(C)N(C(=O)c1ccc(C(=O)Nc2ccc([N+](=O)[O-])cc2)cc1)C(C)C,inactive: -11.2%,
COc1ccc(-c2cc(NC=O)c3ncc(-c4cccc(C(C)=O)c4)n3c2)cc1,inactive: 7.97%,
CC(=O)Nc1ccc(OCC[n+]2cccc(C(N)=O)c2)cc1,inactive: 3.2%,
O=C(O)C12CC3CC(C1)CC(n1ncc(N4CCN(c5ccccc5)CC4)c(Cl)c1=O)(C3)C2,inactive: 4.06%,
Cc1ccc(NC(=O)c2cc(S(=O)(=O)NCCC3=CCCCC3)ccc2F)cc1F,inactive: -2.44%,
CC1=NN(C(=O)c2ccc(Cl)cc2)C(O)(c2ccccc2)C1 (stereo not drawn),inactive: 12.9%,
Cc1ccc(Cl)cc1N1CCN(C(=O)C2CCN(S(=O)(=O)c3c(C)nn(C)c3C)CC2)CC1,inactive: 8.99%,
COCCCN(CC(=O)O)S(=O)(=O)c1ccccc1,inactive: 8.4%,
CC(C)(C)C(=O)Nc1cc(C(F)(F)F)ccc1-n1ccnc1,inactive: -3.59%,
COc1ccc(NC(=O)c2cccc(OS(=O)(=O)N(C)C)c2)cc1,inactive: 12.1%,
Cc1nc2ccccc2c(=O)n1NC(=O)CCC(=O)O,inactive: 4.41%,
CC(C)(C)C(=O)Nc1ccccc1C(=O)NCc1ccco1,inactive: -2.91%,
Cc1sc2ncn(CC(=O)NCCCC(=O)NCc3ccc(F)cc3)c(=O)c2c1C,inactive: 9.14%,

Structure (SMILES),growth rescue (activation),Potency
CCOC(=O)c1ccc(NC(=O)c2cccc(S(=O)(=O)N3c4ccccc4CC3C)c2)s1 (stereo not drawn),inactive: 14.3%,
O=C1c2ccccc2C(=O)C12OC2c1ccc(Cl)cc1Cl (stereo not drawn),inactive: 24.4%,
COc1cccc(CC(=O)Nc2sc3c(c2C(N)=O)CCCC3)c1,inactive: 16.5%,
COc1cc(NC(=O)CSc2nnc(NC(C)C)s2)cc(OC)c1OC,inactive: 1.49%,
COc1ccc(CN2CCN(C(C)C(=O)NC(C)c3ccc(F)cc3)CC2)cc1F (stereo not drawn),inactive: -7.24%,
Cc1ccccc1CC1(CO)CCCN(Cc2ccn[nH]2)C1 (stereo not drawn),inactive: 15.2%,
CC(CC(=O)O)CC(=O)Nc1nncs1 (stereo not drawn),inactive: 5.86%,
COc1ccc(NC(=O)CCc2nnc3n(C)c(=O)c4sccc4n23)cc1,inactive: 1.45%,
O=C(CCc1ccccc1)c1nnc(-c2ccccc2)o1,inactive: -1.21%,
COc1ccc(CCNC(=O)CC2C(=O)NCCN2CC(C)(C)C)cc1 (stereo not drawn),inactive: 9.21%,
Cc1ccc(NC(=O)CSC(C)C(=O)NCCc2ccccn2)cc1 (stereo not drawn),inactive: -4.23%,
c1ccc(-c2nc(-c3ccco3)n3ccccc23)cc1,,active: 12.6 µM
COc1ccc(C2=NNC(c3ccco3)=Nc3ccc(F)cc32)cc1,inactive: 10.8%,
COc1ccc(OC)c(/C=N/Nc2cc(C)nc(N3CCOCC3)n2)c1,inactive: 11.6%,
CS(=O)(=O)N(CC(=O)NCCSc1ccccn1)c1ccc(F)cc1,inactive: -11.6%,
Cc1ccc(CNC(=O)CN2CCN(c3ccc(F)cc3)CC2)cc1,inactive: 5.56%,
COc1cc(C(=O)O)cc(OC)c1OCc1cc(C(=O)O)oc1C,inactive: 2.47%,
Cc1cccc(N2CCN(CC(=O)N(C3CCCC3)C3CCS(=O)(=O)C3)CC2)c1C (stereo not drawn),inactive: 19.8%,
COc1ccc(-c2cn3nc(SCC(=O)NC4CCCCC4)ccc3n2)cc1,inactive: 2.25%,
COc1cc2cc(CN(Cc3nnnn3Cc3ccco3)C3CCCCC3)c(=O)[nH]c2cc1OC,inactive: -1.41%,
COC(=O)c1sc(NC(=O)c2ccc(C)o2)nc1C,inactive: -8.93%,
O=C(NC1CCCC1)c1cc(-c2ccc(Cl)c(Cl)c2)on1,inactive: 25.6%,
O=C(Nc1cccc(S(=O)(=O)N2CCCCC2)c1)c1c2c(nc3ccccc13)CCN(Cc1ccccc1)C2,inactive: -5.54%,

Structure (SMILES),growth rescue (activation),Potency
Cc1nc2c(OCc3ccc(Cl)cc3Cl)cccn2c1N(C)CC1CC1,inactive: -1.5%,
COc1ccc(N2CCN(C(=O)CCC(=O)c3cc(C)sc3C)CC2)cc1,inactive: 29%,
CC1(C)Oc2ccccc2OC1(O)c1ccc2ccccc2n1 (stereo not drawn),inactive: 5.13%,
O=C(O)CSc1c2c(nc3cc(C(=O)N4CCCC4)ccc13)CCCC2,inactive: -1.17%,
O=C(Cc1c(Cl)cccc1Cl)NC1CC1,inactive: 4.37%,
COC(=O)C1=CN(Cc2ccc(OC)cc2)C=C(C(=O)OC)C1c1cccs1,inactive: 29.1%,
C/C(=N\Nc1ccc(S(N)(=O)=O)cc1[N+](=O)[O-])c1ccco1,inactive: -12.7%,
O=C(CNC(=O)c1cccnc1)N/N=C/c1cc(Br)c(O)c(Br)c1,inactive: 4.52%,
COc1ccc(CN2CCNC(=O)C2CC(=O)NCc2csc(C(C)C)n2)c(OC)c1 (stereo not drawn),inactive: -8.24%,
Cc1ccc(NNC(=O)C(=O)N2CCCCC2)cc1,inactive: 30.5%,
Cc1ccc(N=C2NC(=O)/C(=C/c3cn(C)c4ccccc34)S2)cc1C,inactive: 10.8%,
CC(C)N(CCc1ccncc1)C(=S)Nc1cccc(Cl)c1,inactive: 12.5%,
FC(F)(F)c1ccc(Cl)c(NC2=NCCCCC2)c1,inactive: -8.72%,
CCc1nc(SCC(=O)c2ccccc2)c2ccccc2n1,inactive: 27.2%,
Cc1nc2nncn2c(N2CCN(c3ccccc3)CC2)c1C,inactive: 31%,
COc1ccccc1/C=C/c1nc(C#N)c(N2CCCCC2)o1,inactive: 15.5%,
COC(=O)c1c(NC(=O)CSc2nnc(C)c(=O)[nH]2)sc(C)c1C,inactive: 20.5%,
Cc1ccc(OCCOc2ccc(Cl)cc2Cl)c([N+](=O)[O-])n1,inactive: 27.6%,
CC(=O)Nc1ccc(Br)c2ccccc12,inactive: 8.05%,
CC(C)CCC1=NN(C(=O)c2ccco2)C(O)(C(F)(F)F)C1 (stereo not drawn),inactive: 23.5%,
Clc1ccc(C(c2ccccc2)N2CCN(c3ccccn3)CC2)cc1 (stereo not drawn),inactive: -19%,
COc1ccc2[nH]c3c(NCCCOC(C)C)ncnc3c2c1,inactive: -8.52%,
